Reference: PubChem BioAssay AID485281 (National Center for Advancing Translational Sciences (NCATS), 2010)
Screen size: about 350,000 compounds; about 260 (0.074%) were called active. This list was built around the results that the source calls inconclusive (neither active nor inactive); the mix of calls is not that of the screen. Calls come from the whole dose curve; as a rule, active = well fitted inhibition curve with a large enough effect; inconclusive = small, poorly fitted or top-dose-only effect; inactive = no such curve, though single readings can be large or run the other way. Where the call is inconclusive, the potency comes from a doubtful curve fit.

Each compound was assayed against Ferritin light chain (Equus caballus) (UniProt P02791) (assay: qHTS Assay for Identification of Novel General Anesthetics). Conditions: apoferritin/1-aminoanthracene competitive binding, fluorescence; activity change, negative = displacement: at 77.5 µM (top of the series).
Source text: Source: NIH Chemical Genomics Center [NCGC]
Assay Submitter: Roderic Eckenhoff, University of Pennsylvania
Screening Center PI: Christopher P. Austin, NIH
Probe Development: NIH Chemical Genomics Center [NCGC]
Anesthetic development has remained a largely empirical process. There are growing concerns about the cognitive effects of known general anesthetics and acceleration of the onset of neurodegenerative disease. The compounds' toxicity and multiple specific binding targets in the mammalian brain [4] has made them less attractive as drug leads. In this assay, a GABAergic mimetic model system, apoferritin and a profluorescent 1-aminoanthracene ligand (1-AMA), was used to construct a competitive binding assay for identification of novel general anesthetics. The assay was validated for 1-AMA using other known anesthetics, such as isoflurane (CID:3763) and propofol (CID: 4943), [6].
[1] S.L. Bianchi, T. Tran, C. Liu, S. Lin, Y. Li, J.M. Keller, R.G. Eckenhoff, and M.F. Eckenhoff, Brain and behavior changes in 12-month-old Tg2576 and nontransgenic mice exposed to anesthetics. Neurobiol Aging 29 (2008) 1002-10.
[2] Z. Xie, Y. Dong, U. Maeda, R.D. Moir, W. Xia, D.J. Culley, G. Crosby, and R.E. Tanzi, The inhalation anesthetic isoflurane induces a vicious cycle of apoptosis and amyloid beta-protein accumulation. J Neurosci 27 (2007) 1247-54.
[3] P. Honegger, and J.M. Matthieu, Selective toxicity of the general anesthetic propofol for GABAergic neurons in rat brain cell cultures.
[4] M.F. Eckenhoff, K. Chan, and R.G. Eckenhoff, Multiple specific binding targets for inhaled anesthetics in the mammalian brain. J Pharmacol Exp Ther 300 (2002) 172-9.
[5] C.A. Butts, J. Xi, G. Brannigan, A.A. Saad, S.P. Venkatachalan, R.A. Pearce, M.L. Klein, R.G. Eckenhoff, and I.J. Dmochowski, Identification of a fluorescent general anesthetic, 1-aminoanthracene. Proc Natl Acad Sci U S A 106 (2009) 6501-6.
[6] W.A. Lea, J. Xi, A. Jadhav, L. Lu, C.P. Austin, A. Simeonov, and R.G. Eckenhoff, A high-throughput approach for identification of novel general anesthetics. PLoS One 4 (2009) e7150.
Three uL of reagents (free 1-AMA (50% saturated solution of 1-aminoanthracene
in PBS) in columns 3, 4 as negative control and 1-AMA/apoferritin mixture (10 uM horse-spleen apoferritin in 50% saturated 1-aminoanthracene in PBS) in columns 1, 2, 5-48) was dispensed into 1536-well Greiner black assay plates. Compounds (23 nL) were transferred via Kalypsys pintool equipped with 1,536-pin array (10 nL slotted pins, V&P Scientific, San Diego, CA). Titration of the positive control, propofol, were delivered via pin transfer from separate control plates to the 2nd column of each assay plate. The starting concentration of the control, dissolved in DMSO, was at 160 mM, followed by two-fold dilution points in duplicate, for a total of 16 concentrations. The plates were incubated for 10 min at room temperature, and then read on an EnVision HTS multilabel reader (Perkin-Elmer, Waltham, MA) (end point read, 3 min/plate) using Fura2 BFP excitation filter (380 nm, bandwidth 10 nm) and fluorescein emission filter (535 nm, bandwidth 25 nm) set. A LANCE/DELFIA dichroic mirror with a cutoff wavelength at 400 nm was used to maximize signal accuracy and strength. Vehicle-only plates, with DMSO being pin-transferred to the entire column 5-48 compound area, were inserted uniformly at the beginning and the end of each library in order to monitor for and record any shifts in the background. Activity was computed as the normalized fluorescence response relative to free 1-AMA and 1-AMA/apoferritin complex values. Concentration-effect relationships were derived by using curve fitting algorithms developed in-house (http://ncgc.nih.gov/pub/openhts/). A four parameter Hill equation was fitted to the concentration-response data by minimizing the residual error between the modeled and observed responses.
% is set by controls: 0 for no effect and ±100 for the full control effect; potency is the fitted concentration of half-maximal effect; tags give direction and shape of the fitted curve.
Note: nearly all actives have a fitted effect of over 20% in size.

Chain of UniProt P02791 (P02791 whole entry, looked up): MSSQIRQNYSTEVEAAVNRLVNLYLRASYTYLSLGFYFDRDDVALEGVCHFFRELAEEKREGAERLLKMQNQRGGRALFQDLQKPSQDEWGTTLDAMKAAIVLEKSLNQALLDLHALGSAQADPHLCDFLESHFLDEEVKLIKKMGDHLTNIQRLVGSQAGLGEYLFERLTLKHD

Structure (SMILES)	Potency	activity change, negative = displacement
COc1ccc(OCc2cc(C(=O)NC(C)Cc3ccccn3)no2)c(Cl)c1 (stereo unspecified)	inconclusive: 17.8 µM [inhibitor, partial curve]	
COc1ccccc1N1C(=O)C(Cl)=C(Nc2ccccc2O)C1=O	inconclusive: 35.5 µM [inhibitor, single point]	
Cc1ccccc1OCCCc1c(C)n[nH]c1C	inconclusive: 12.6 µM [inhibitor, partial curve]	
CCOC(=O)c1sc(NC(=O)c2cccc(S(=O)(=O)N3CCN(C)CC3)c2)cc1C	inconclusive: 11.2 µM [inhibitor, partial curve]	
Cc1ccc(-c2nn(CC(=O)Nc3cccc(C(F)(F)F)c3)c(=O)c3ccccc23)cc1	inconclusive: 6.31 µM [inhibitor, full curve]	
CCN(CC)S(=O)(=O)c1cccc(N=Nc2sc(N)nc2C)c1		inactive: -20.2%
N/C(=N\OC(=O)Cc1ccc(Cl)cc1)c1ccccn1	inconclusive: 25.1 µM [inhibitor, partial curve]	
O=C(CSc1cccc2cccnc12)NCc1ccco1		inactive: -4.07%
CC(C)CNc1oc(-c2ccco2)nc1C#N		inactive: -7.96%
CC(=O)Nc1ccc(S(=O)(=O)NNc2ccc([N+](=O)[O-])cc2)cc1	inconclusive: 28.2 µM [inhibitor, single point]	
COc1ccc(C)cc1NC(=O)CC(=O)Nc1ccc2nc3n(c(=O)c2c1)CCCCC3	inconclusive: 10 µM [inhibitor, partial curve]	
CNS(=O)(=O)c1cccc(C(=O)OCC(=O)N2c3ccccc3CC2C)c1 (stereo unspecified)	inconclusive: 20 µM [inhibitor, partial curve]	
CCOc1ccc(S(=O)(=O)N(C(=O)c2ccncc2)c2ccc3oc(C)c(C(=O)OC)c3c2)cc1	inconclusive: 4.47 µM [inhibitor, partial curve]	
O=C(Nc1ccc(N2CCCCC2)c(Cl)c1)c1ccc2c(c1)OCCO2	inconclusive: 12.6 µM [inhibitor, partial curve]	
CC(C)N(Cc1cc2ccccc2[nH]c1=O)C(=O)C(C)(C)C	inconclusive: 15.8 µM [inhibitor, partial curve]	
CCOC(=O)c1nn(-c2ccc3ccccc3c2)cc1O	inconclusive: 39.8 µM [inhibitor, single point]	
Cc1nn(CC(=O)Nc2cccc(C(F)(F)F)c2)c(=O)c2nn(-c3ccccc3)c(C)c12	inconclusive: 31.6 µM [inhibitor, single point]	
Cc1cc(C)c(S(=O)(=O)NCCc2ccccc2)c(C)c1	inconclusive: 20 µM [inhibitor, partial curve]	
O=C(NCCc1csc(-c2ccc(F)cc2)n1)c1c(F)cccc1Cl		inactive: 47.4%
CCOC(=O)c1nn(-c2cccc(C)c2)cc1C(=O)c1ccccc1	inconclusive: 35.5 µM [inhibitor, single point]	
CCOC(=O)c1nnn(-c2nonc2N)c1COc1ccccc1	inconclusive: 28.2 µM [inhibitor, partial curve]	
COc1cc(OC)c2ccc(=O)oc2c1C(CCN1CCCC1)c1ccc2c(c1)OCO2 (stereo unspecified)	inactive	

Structure (SMILES)	Potency	activity change, negative = displacement
CCOC(=O)c1ccc(-c2c(C)cc3oc(=O)cc(-c4ccccc4)c3c2C)cc1	inconclusive: 6.31 µM [inhibitor, partial curve]	
NNC(=O)COc1cccc(Oc2ccccc2)c1	inconclusive: 28.2 µM [inhibitor, partial curve]	
COc1ccc(NC(=O)CSC2=Nc3ccccc3C3=NC(CCC(=O)NCCc4ccccc4)C(=O)N23)c(OC)c1 (stereo unspecified)	inconclusive: 14.1 µM [inhibitor, partial curve]	
Cc1ccc(OCCNC(=O)c2cncc(Br)c2)cc1C	inconclusive: 39.8 µM [inhibitor, partial curve]	
CCOc1ccc(NC(=O)Nc2cc(C)ccc2F)cc1		inactive: -2.51%
CC(=O)c1ccc(N2CCN(S(=O)(=O)c3cc4c(cc3C)NC(=O)CO4)CC2)cc1	inconclusive: 39.8 µM [inhibitor, single point]	
COc1ccc(CC(=O)n2[nH]c(=O)ccc2=O)cc1OC		inactive: -5.63%
Cc1ccc(S(=O)(=O)N2CCC(C(=O)N3CCC3)CC2)cc1	inconclusive: 17.8 µM [inhibitor, partial curve]	
COc1ccc(CNC(=O)c2cc(C)nc3c2c(C)nn3-c2cccc(Cl)c2C)cc1		inactive: -10.9%
CC(C)(C)c1ccccc1NC(=O)Cn1cnc2cc([N+](=O)[O-])ccc2c1=O	inconclusive: 28.2 µM [inhibitor, single point]	
O=C(CCc1ccccc1)c1c(O)cc(O)cc1O	inconclusive: 50.1 µM [inhibitor, single point]	
Cc1ccc(OCC(=O)N/N=C/c2ccccc2)c([N+](=O)[O-])c1	inconclusive: 35.5 µM [inhibitor, single point]	
CC(=O)c1ccc(NC(=O)Cn2ncc3c(C)n(Cc4ccc(F)cc4)c(C)c3c2=O)cc1		inactive: -12.9%
O=C1N=C(N2CCc3ccccc3C2)S/C1=C\c1ccc(O)cc1	inconclusive: 14.1 µM [inhibitor, partial curve]	
COc1ccc2cc(C(=O)C3CCCN(Cc4cnc(N5CCOCC5)s4)C3)ccc2c1 (stereo unspecified)	inconclusive: 31.6 µM [inhibitor, partial curve]	
CC(C)(C)c1ccc2c(c1)OC(C(=O)N/N=C\c1ccc[nH]1)CO2 (stereo unspecified)	inconclusive: 25.1 µM [inhibitor, partial curve]	
CC1(C)CC(=O)C2=C(C1)Nc1ccccc1N1C(=O)c3ccccc3C21 (stereo unspecified)	inconclusive: 50.1 µM [inhibitor, single point]	
Cc1ccc(CCNC(=O)c2cc(-c3ccc(Cl)cc3)n[nH]2)cc1	inconclusive: 50.1 µM [inhibitor, partial curve]	
COc1cccc(CN2CCNC(=O)C2CC(=O)NCCn2ccc3ccccc32)c1OC (stereo unspecified)	inconclusive: 28.2 µM [inhibitor, partial curve]	
CC(=O)OCC1(C)CN(c2ccccc2)N(C(C)=O)C1=O (stereo unspecified)		inactive: 0.0194%
O=C(COC(=O)CSCc1ccccc1)NCc1ccccc1	inconclusive: 25.1 µM [inhibitor, single point]	
Fc1ccccc1/C=C1\CCCC2=C1Nc1ncnn1C2c1ccccc1F (stereo unspecified)	inconclusive: 31.6 µM [inhibitor, partial curve]	

Structure (SMILES)	Potency	activity change, negative = displacement
Cc1ccc(CN=c2c([N+](=O)[O-])nn(-c3ccc(Cl)cc3)n2O)cc1	inconclusive: 39.8 µM [inhibitor, partial curve]	
Cc1cc(=O)n2nc(N3CCCC3C(=O)Nc3ccc(C(C)C)cc3)sc2n1 (stereo unspecified)	inconclusive: 25.1 µM [inhibitor, partial curve]	
COc1ccc(CNc2nc(-c3ccccc3OC)nc3ccccc23)c(OC)c1		inactive: -15.3%
Cc1cc(=O)[nH]c(SCC(=O)N2CCC(Cc3ccccc3)CC2)n1	inconclusive: 35.5 µM [inhibitor, partial curve]	
O=C(CC(O)(c1ccccc1)C(F)(F)F)c1cccs1 (stereo unspecified)	inconclusive: 12.6 µM [inhibitor, partial curve]	
CCn1cc(C(=O)OCC(=O)N2C(C)CCCC2C)c(=O)c2ccc(C)nc21 (stereo unspecified)	inconclusive: 25.1 µM [inhibitor, partial curve]	
CC(C)(C)c1ccc(OCC(=O)Nc2ccc3c4c(cccc24)C(=O)NC3=O)cc1		inactive: 0.173%
Cc1ccc(C(=O)NNC(=O)c2ccc(SCC3CCCO3)c([N+](=O)[O-])c2)cc1 (stereo unspecified)	inconclusive: 22.4 µM [inhibitor, partial curve]	
CC(C)NC(=O)NC(=O)CSc1nnc(COc2ccccc2F)n1C(C)C1CC2CCC1C2 (stereo unspecified)	inconclusive: 7.08 µM [inhibitor, partial curve]	
Cc1ccc(NC(=O)Cn2c(-c3cncs3)nc3ccccc32)cc1Br	inconclusive: 1.26 µM [inhibitor, full curve, poor fit]	
CCCc1nccn1S(=O)(=O)c1cc(Br)ccc1OC	inconclusive: 17.8 µM [inhibitor, partial curve]	
COc1cccc(Nc2nnc(SCn3nnc4ccccc4c3=O)s2)c1	inconclusive: 28.2 µM [inhibitor, partial curve]	
c1cc(CN2CCCNCCNCCCNCC2)ccc1CN1CCCNCCNCCCNCC1		inactive: 5.18%
COCCCNC(=S)N1CCN(c2nc(-c3ccccc3)cs2)CC1		inactive: -5.65%
COc1cccc(NC(=O)c2cccc(N3C(=O)C4CCC(C)CC4C3=O)c2)c1 (stereo unspecified)	inconclusive: 44.7 µM [inhibitor, single point]	
Cc1ccccc1NS(=O)(=O)c1ccc2[nH]cc(C(=O)NC(C)c3ccccc3)c(=O)c2c1 (stereo unspecified)	inconclusive: 15.8 µM [inhibitor, partial curve]	
C/C(=N\N)c1c(-c2ccccc2)c2cc(Br)ccc2[nH]c1=O	inconclusive: 22.4 µM [inhibitor, partial curve]	
Cc1cccc(Nc2cc(C)c3c(O)cccc3n2)c1C	inconclusive: 25.1 µM [inhibitor, partial curve]	
COc1ccc(NC(=O)C(=O)c2cn(CC(=O)N3CCOCC3)c3ccccc23)cc1OC	inconclusive: 22.4 µM [inhibitor, single point]	
O=C(NCc1ccco1)c1ccc2c(c1)C(=O)N(C1CCCCC1)C2=O	inconclusive: 14.1 µM [inhibitor, partial curve]	
Cc1cc(C)n(CC2CC(=O)N(c3cc(Cl)cc(Cl)c3)C2=O)n1 (stereo unspecified)		inactive: 2.58%
Clc1ccc2c(c1)[C@H]1OCC[C@H]1[C@@H](c1ccco1)N2	inconclusive: 31.6 µM [inhibitor, single point]	
